{"source": "patent US20260209325A1", "about": "“SELECTIVE AND POTENT INHIBITORY ANTIBODIES OF MYOSTATIN ACTIVATION” (SCHOLAR ROCK, INC., priority 2022, published 2026)", "molecules": {"B1": {"name": "Ab109: anti-pro/latent myostatin antibody; CDR sequences in Table 2d (antibody)", "heavy": "EVQLVESGGGLVQPGGSLRLSCAASGFTFSSYGMSWVRQAPGKGLELVASFTGSGGTYYPDSVKGRFTISRDNAKNSLYLQMNSLRAEDTAVYYCARDLLIRFLEWSHYYGMDVWGQGTTVTVSSASTKGPSVFPLAPCSRSTSESTAALGCLVKDYFPEPVTVSWNSGALTSGVHTFPAVLQSSGLYSLSSVVTVPSSSLGTKTYTCNVDHKPSNTKVDKRV[human IgG4 Fc with S228P (EU numbers) left out]", "light": "DIVMTQSPLSLPVTPGEPASISCRSSQSLLHSSGHNFLHWYLQKPGQSPQLLIYEVSNRVSGVPDRFSGSGSGTDFTLKISRVEAEDVGVYYCMQQTQYPPTFGGGTKVEIKRTVAAPSVFIFPPSDEQLKSGTASVVCLLNNFYPREAKVQWKVDNALQSGNSQESVTEQDSKDSTYSLSSTLTLSKADYEKHKVYACEVTHQGLSSPVTKSFNRGEC"}}, "key": {"[1]": {"molecular_target": "murine pro-myostatin (Mus musculus, UniProt O08689)", "test": "Biacore 8k SPR binding affinity, murine pro-myostatin", "from_the_text": "(§1) The Biacore™ 8k SPR system was utilized to evaluate the binding affinity of myostatin antibodies to biotinylated human, murine, and cyno pro-myostatin. Biotin CAPture kit and sensor chips (Cytiva) were utilized in these experiments to immobilize the various antigens, followed by flowing a range of concentrations of each of the test antibodies."}, "[2]": {"molecular_target": "cyno pro-myostatin (Macaca fascicularis, UniProt Q95J86)", "test": "Biacore 8k SPR binding affinity, cyno pro-myostatin", "parameters": "species or system cynomolgus monkey", "from_the_text": "as §1"}, "[3]": {"test_system": "leptin", "test": "circulating leptin, U-PLEX Metabolic Hormones Combo 1 (Example 6)", "format": "in vivo, mouse", "conditions": "for Leptin Day 64 (circulating leptin): 60%/45% high fat diet", "method": "Circulating leptin was measured using the U-PLEX Metabolic Hormones Combo 1 (mouse) according to manufacturer's instructions (Meso Scale Diagnostics, #K15306K-2). As expected, circulating leptin was higher in animals fed the high fat diet than animals fed a standard chow."}, "[4]": {"test_system": "total myostatin", "test": "total serum myostatin (PD) in obese mice with or without semaglutide (Example 8)", "format": "in vivo, mouse", "conditions": "0.1 to 3 mg/kg, alone or with semaglutide; FIG. 16B", "method": "Male 19 week old C7/BL6 mice fed a high fat diet to induce obesity (DIO-B6-M mice, were evaluated for the effect of the combination of antibody and semaglutide on the exposure of the antibody to the target antigen (PK) and the total myostatin serum level (PD), as shown in Table 25. Animals were dosed with antibody intraperitoneally on days 0, 7, and 14 and were dosed with semaglutide subcutaneously daily throughout the study. Exposure of the antibody to immobilized promyostatin was determined by ELISA. Total serum myostatin was also measured by ELISA. The study concluded on day 22, when terminal bleeds were obtained."}, "[5]": {"molecular_target": "human pro-myostatin (Homo sapiens, UniProt O14793)", "test": "Biacore 8k SPR binding affinity, human pro-myostatin", "from_the_text": "as §1"}}, "data": [{"molecule": "B1", "values": [{"measurement": "Ka", "setting": "[1]", "value": "6.81e+06", "unit": "M⁻¹ s⁻¹"}, {"measurement": "Kd (1/s)", "setting": "[1]", "value": 0.00134, "unit": "s⁻¹"}, {"measurement": "Ka", "setting": "[2]", "value": "7.23e+06", "unit": "M⁻¹ s⁻¹"}, {"measurement": "Kd (1/s)", "setting": "[2]", "value": 0.000925, "unit": "s⁻¹"}, {"measurement": "Leptin Day 64 (circulating leptin)", "setting": "[3]; semaglutide 0.04 mg/kg day 7-35 (regain arm)", "value": 21.71, "unit": "ng/mL"}, {"measurement": "Leptin Day 64 (circulating leptin)", "setting": "[3]; semaglutide 0.04 mg/kg day 7-63", "value": 12.4, "unit": "ng/mL"}, {"measurement": "circulating leptin", "setting": "[3]; FIG. 14K", "value": "decreased circulating leptin in the semaglutide withdrawal group"}, {"measurement": "serum total myostatin", "setting": "[4]", "value": "not affected by the presence of semaglutide"}, {"measurement": "Ka", "setting": "[5]", "value": "6.62e+06", "unit": "M⁻¹ s⁻¹"}, {"measurement": "Kd (1/s)", "setting": "[5]", "value": 0.000196, "unit": "s⁻¹"}]}]}
